Source: US8263596B2, “Kinase inhibitors and method of treating cancer” (University Health Network, priority 2010, dated 2012)

Legend:
Experiment in all cases: Cell growth inhibition (SRB), extended panel
Assay type in all cases: cell-based
[1] = system: SKBR3 breast cancer cell line; settings: Homo sapiens, SK-BR-3, read-out: GI50 Range
[2] = system: SW 626 ovarian cancer cell line; settings: Homo sapiens, SW626, read-out: GI50 Range
[3] = system: T47 D breast cancer cell line; settings: Homo sapiens, T47D, read-out: GI50 Range
[4] = system: BT474 breast cancer cell line; settings: Homo sapiens, BT-474, read-out: GI50 Range
[5] = system: HCT-15 colon cancer cell line; settings: Homo sapiens, HCT-15, read-out: GI50 Range
[6] = system: HCT116+/+ colon cancer cell line; settings: Homo sapiens, HCT-116, read-out: GI50 Range
[7] = system: PC-3 prostate cancer cell line; settings: read-out: GI50 Range
[8] = system: SK-OV-3 ovarian cancer cell line; settings: Homo sapiens, SK-OV-3, read-out: GI50 Range
[9] = system: HS578T breast cancer cell line; settings: Homo sapiens, Hs-578T, read-out: GI50 Range
[10] = system: HCT116+/− colon cancer cell line; settings: Homo sapiens, HCT-116, read-out: GI50 Range
[11] = system: 184A1 immortalized breast cell line; settings: 184A1, read-out: GI50 Range

Measured: GI50

COc1ccc2c(c1)[C@]1(C[C@H]1c1ccc3c(-c4ccc(N5CCN(C)CC5)nc4)n[nH]c3c1)C(=O)N2 (racemic) [Example A13, (1R*,2S*)-5′-Methoxy-2-(3-(6-(4-methylpiperazin-1-yl)pyridin-3-yl)-1H-indazol-6-yl)spiro[cyclopropane-1,3′-indolin]-2′-one]
not listed: [11]
< 50 µM: all other assays above

CN(C)Cc1ccc(/C=C/c2n[nH]c3cc([C@@H]4C[C@@]45C(=O)Nc4ccccc45)ccc23)cc1 (relative stereo) [Example A23, (1R*,2S*)-(E)-2-(3-(4-((dimethylamino)methyl)styryl)-1H-indazol-6-yl)spiro[cyclopropane-1,3′-indolin]-2′-one 2,2,2-trifluoroacetate]
not listed: [2] | [3] | [9]
< 50 µM: all other assays above
